Data: the supplement of paper PMC3334620
Whole data set: some 33,000 sequences, median “E-score (-0.5 to 0.5)” near -0.012, cut for the highest 2% near 0.27. Some of the results follow.

These sequences were tested against T1, Vhr1 (UniProt P40522) (assay: PBM E-score (8-mer binding enrichment) (E-score (-0.5 to 0.5)); higher = stronger / more preferred TF binding; most listed sequences are background and not binding sites). Settings: protein concentration: 200 nM; construct: GST-full length.
T1 sequence: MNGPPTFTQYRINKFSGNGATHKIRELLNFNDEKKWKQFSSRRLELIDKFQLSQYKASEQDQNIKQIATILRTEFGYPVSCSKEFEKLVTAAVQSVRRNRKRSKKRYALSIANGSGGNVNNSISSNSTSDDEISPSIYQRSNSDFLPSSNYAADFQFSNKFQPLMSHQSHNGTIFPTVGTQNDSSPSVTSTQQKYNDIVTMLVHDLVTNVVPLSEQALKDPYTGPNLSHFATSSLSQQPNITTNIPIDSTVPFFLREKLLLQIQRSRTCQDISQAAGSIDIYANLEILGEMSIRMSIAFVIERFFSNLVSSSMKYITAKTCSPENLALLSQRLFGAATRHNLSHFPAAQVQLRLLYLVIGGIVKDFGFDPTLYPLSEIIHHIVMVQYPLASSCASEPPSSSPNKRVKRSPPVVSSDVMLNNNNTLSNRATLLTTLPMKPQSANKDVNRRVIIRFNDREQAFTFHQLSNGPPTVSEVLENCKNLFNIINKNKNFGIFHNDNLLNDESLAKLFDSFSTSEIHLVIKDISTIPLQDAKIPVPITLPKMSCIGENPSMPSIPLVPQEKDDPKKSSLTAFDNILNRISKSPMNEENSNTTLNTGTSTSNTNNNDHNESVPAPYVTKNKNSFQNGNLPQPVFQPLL
In short: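 Full-length yeast transcription factors or their DNA-binding domains, GST-tagged and expressed with PURExpress, were applied at about 100-200 nM to universal all-10-mer Agilent arrays. These arrays had been made double-stranded by primer extension on fresh or once-stripped slides. Detection used fluorescent anti-GST, normalisation used masliner, and E-scores for ungapped eight-base words pooled with reverse complements came from the Universal PBM Analysis Suite.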

Sequence | PBM E-score
GAAAGTCA | 0.203
AAAGCCCA | -0.0818
AAGAATTA | -0.369
ACCCGGAA | 0.0692
GTCTAGAA | -0.17
TATTTAGA | 0.0897
CTGAAGGC | -0.33
CATCCCCG | 0.107
CAAAATTC | 0.0266
GCACCAGA | -0.0213
AGCCGCAA | 0.0829
CCGCTTTC | -0.0995
ACAATAAT | -0.0245
CGACCTCG | 0.0818
TCACGAGA | 0.0719
CACTCCTG | 0.116
ACTGAAGC | 0.0356
GCGTTAGA | -0.216
AATTAACG | -0.0971
ATTACCTC | -0.0495
AACGCGAC | 0.0199
ATGCAAAG | -0.202
GGGCTTCA | -0.00484
ATAGTCAG | 0.333
CAAACGCG | -0.0187

Sequence | PBM E-score
ACGTTTAG | -0.151
GCCAATTA | -0.0432
CGTGTGTC | 0.0761
ATGCTTCG | 0.0045
ACAGGATC | 0.047
CCCAATTA | 0.0589
CCACATGA | 0.115
GAAGTGAC | -0.122
CGAAGGGC | -0.158
CTCACGTC | 0.0194
CGGGACTA | -0.168
AAAATATG | 0.0742
GAAACGAA | -0.0153
GGCCTTAC | -0.148
CGGGCGGA | 0.0619
AAAGATAA | -0.137
CTTATCAC | 0.0322
GGATGCGA | -0.0759
AGGAAACT | -0.0671
ACCCTATA | 0.115
ATTCCATC | 0.086
CTACAGGA | -0.114
AAATGATC | -0.0287
CGGGCTCC | -0.184
CAGGACCG | -0.0695

Sequence | PBM E-score
AGGTAACT | 0.0213
CCTCAAGA | -0.178
AAAGAGAA | -0.106
CCCTTTCC | -0.143
ACCAACAA | 0.359
GTATGCCA | -0.118
ACTTTCCC | -0.0927
CTTGTTTA | -0.0807
AACGCGGT | 0.0262
CAATCTTA | -0.11
ACCTTGCA | -0.147
CCGTGATC | 0.0926
ACCAGCGG | 0.00605
TCAACGAA | -0.131
ATGGCCAG | 0.0351
AGCGAAAA | -0.167
ATAAGCTA | -0.0374
CGCCAGTC | 0.103
ACTTGCAG | -0.22
CTTAACCC | -0.213
TTGAAAAA | -0.171
AAAGTCTT | -0.233
ACTCTACT | 0.0544
ACGACGAA | 0.125
AGAGAAGA | -0.148

Sequence | PBM E-score
CCCCCAGA | -0.347
ATTGCGTC | 0.0326
CACCCAAC | 0.167
AACTTATG | 0.0751
CGTAATTC | -0.0942
AGTATGTC | 0.168
GCCCAAAC | 0.0733
GAAATATC | 0.086
ACCTACTC | 0.0487
AGCCGGCC | -0.0238
AAGTCAGA | 0.0614
CACGGTCA | 0.117
AAGCTTGA | -0.169
GCGTACAC | -0.0178
ATCGGATG | -0.132
ATTAGATC | 0.09
GCAAGCTA | -0.152
CACCTACA | 0.0983
AACTGACT | 0.191
GATTCTGA | 0.0911
ATCTTTAC | -0.063
CAATACTG | 0.138
CTTGCAGC | -0.233
AACGTAAG | -0.173
AAGTAATA | -0.0578

Sequence | PBM E-score
CCAAGAAC | -0.187
AGTTCAAT | -0.149
CCGCCTAC | 0.0023
ACCTAATG | -0.0403
GTCCACAA | -0.282
GCACACAC | 0.178
CCCAAAAA | -0.14
TAATCGTA | 0.114
TCCTGAGA | -0.158
AGAGGATC | -0.0834
ACGATCCG | 0.133
ATTGCGTG | 0.0365
ACCACAAG | -0.00474
CGGTCCGC | -0.0767
ATGTCGAG | -0.141
GGTCGAGA | 0.145
TTAGCTAA | -0.14
ACTACAAA | 0.143
ACGCGGTA | -0.0469
GTTCAGTA | 0.0571
GCATATAC | -0.0649
CCGGTGCC | -0.194
ACCTAGCC | -0.207
AGGCTGTG | 0.00113
ATGCCATC | 0.147

Sequence | PBM E-score
AACCCGGA | 0.143
AAAGATTT | -0.134
CATTCGCC | 0.00808
CGTTATCC | -0.0844
CAACTCTG | 0.0491
AACAGACC | 0.0701
CTCGGATC | 0.0579
CCTGACCG | -0.105
CACAACAC | 0.181
CAGTCCGG | -0.0896
ATTGCTCC | 0.0426
CTCCATTC | -0.0279
CACAGTAC | 0.196
AAATCATT | -0.011
CTACGGTC | -0.2
CCCTTTTC | 0.0427
AGAATCCC | 0.0522
CTCGGGGC | 0.0244
GGGCAAAA | 0.0176
ACGGGCAT | -0.152
GCTAGAGC | -0.0223
GCAGGGAC | -0.154
GAACGCTA | -0.165
GTATAGCA | 0.0458
CCTTCCAA | -0.135

Sequence | PBM E-score
CATAGGCG | -0.221
TACACCTA | 0.0746
GTACGGAA | 0.105
AGACTGTG | -0.0209
ATATCCGC | 0.0132
AGTTGTTC | -0.0542
CAAAAAGG | -0.259
CTAATGTC | 0.0475
TACCCGTA | 0.0302
CTCCTACC | -0.16
ATATCGGA | 0.0628
CAGCCTGG | 0.0394
CGCGTAAC | -0.152
ATTAAAGC | -0.0475
TCACTCCA | 0.0755
CAGCGCTC | -0.141
CGGTCAGA | 0.0206
CTTCGCGA | 0.0137
AAAAGGGT | -0.0575
TCGGATAA | -0.0382
TCTTATAA | -0.0642
ATCGCCGA | -0.0607
